Measurements as given in PubChem BioAssay (NCATS).
“And” between values parts separate entries of the source, which are not always exact repeats. Identical values can stand only once. This list was built around the results that the source calls inconclusive (neither active nor inactive); the mix of calls is not that of the screen. Potencies of inconclusive entries are doubtful fits and often do not repeat. The source made the active and inactive calls. The call rests on the fitted dose curve; in most records, active means well fitted curve in the direction sought with a large enough effect; inconclusive means small, poorly fitted or top-dose-only effect, or another doubt; inactive means no such curve, though single readings can be large; an effect the other way counts as inactive or inconclusive.

Key:
[1] = Viability qHTS for spleen associated tyrosine kinase inhibitor (SYKi) naive MV4-11 cells (AID 1963823); details: MV4-11 AML viability, CellTiter-Glo luminescence, 72 h; viability (% of control): at 45 µM (top of the series); further: nearly all actives have a fitted effect of over 40% in size
Outline: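 SYK inhibitor-naive MV4-11 cells, 500 per well, exposed to compounds for 72 hr at 37 C, 5% CO2. Viability read as CellTiter-Glo luminescence after 10 min at room temperature.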

[2] = Viability qHTS for spleen associated tyrosine kinase inhibitor (SYKi) drug resistant MV4-11 cells (AID 1963824); further: nearly all actives have a fitted effect of over 35% in size
Outline: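 SYK-inhibitor-resistant MV4-11 AML cells were seeded at 500 per well onto compound and cultured 72 hours (37 °C, 5% CO2). CellTiter-Glo was then added, and after 10 min at room temperature, luminescence gave viability.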

[3] = Cellular viability qHTS for adrenocortical cancer (ACC) cell line SW-13 (AID 1963989); details: SW-13 ACC cells viability, CellTiter-Glo, 48 h; activity (max response): active compounds read low; further: nearly all actives have a fitted effect of over 65% in size;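 on activity (max response): cells grown in serum-free medium with ITS supplement; on the % scale 0 is the no-effect control and ±100 the full control effect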
Outline: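 Viability was read as CellTiter-Glo luminescence after 48 h compound treatment (up to 46 uM final) of SW-13 cells grown serum-free; titration curves were fit with a four-parameter logistic model to give IC50 and efficacy.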

[4] = Cellular viability qHTS for adrenocortical cancer (ACC) cell line NCI-H295R (AID 1963990); details: CellTiter-Glo ATP luminescence, 48 h; activity change, negative = viability loss: at 46.1 µM (top of the series); further: nearly all actives have a fitted effect of over 60% in size;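 on activity change, negative = viability loss: 0% = DMSO only wells and -100% = full killing with cytotoxic reference compound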
Outline: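 CellTiter-Glo ATP luminescence, read 48 h after compound addition, measured viability of NCI-H295R adrenocortical cells grown serum-free with ITS. Final concentrations spanned up to 46 uM. Data normalized to DMSO and doxorubicin, fitted for IC50 and maximal response.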
Potency means the concentration at half of the fitted maximal effect; tags describe the fitted curve by direction and shape.

| SMILES | Potency [1] | Potency [2] | Potency [3] | Potency [4] | activity (max response) [3] |
| --- | --- | --- | --- | --- | --- |
| O=C(OCc1ccccc1)c1ccc(O)cc1 | inconclusive: 15 µM [cytotoxic, partial curve] | inconclusive: 33.5 µM [cytotoxic, single point] | inconclusive: 23.1 µM [cytotoxic, partial curve, poor fit] | inconclusive: 0.0231 µM [cytotoxic, single point] |  |
| CN1CCN2c3ccccc3Cc3ccccc3C2C1 (stereo not given) | inconclusive: 18.8 µM [cytotoxic, partial curve] | inconclusive: 26.6 µM [cytotoxic, single point] | inconclusive: 29.1 µM [cytotoxic, single point] | inconclusive: 29.1 µM [cytotoxic, single point] |  |
| N#Cc1cccnc1N1CCN(C(=O)c2cccc(Cc3n[nH]c(=O)c4ccccc34)c2)CC1 | inconclusive: 0.296 µM [cytotoxic, full curve] | active: 0.186 µM | inconclusive: 1 µM [cytotoxic, partial curve] | inconclusive: 22.4 µM [cytotoxic, partial curve, poor fit] |  |
| CC(C)NCCCn1c(Sc2cc(Cl)cc(Cl)c2)nc2c(N)ncnc21 | inconclusive: 14.8 µM [cytotoxic, partial curve] | inconclusive: 13.2 µM [cytotoxic, partial curve] | inconclusive: 35.5 µM [cytotoxic, single point] | inconclusive: 35.5 µM [cytotoxic, single point] |  |
| CC(C)=CCC1C(=O)N(c2ccccc2)N(c2ccccc2)C1=O | inconclusive: 16.8 µM [cytotoxic, partial curve] | inconclusive: 5.96 µM [cytotoxic, full curve] | inconclusive: 29.1 µM [cytotoxic, single point] | active: 20.6 µM |  |
| Cc1nc2c([nH]1)c(=O)n(C)c(=O)n2Cc1ccco1 | inconclusive: 0.0038 µM [cytotoxic, full curve, poor fit] | inconclusive: 0.0033 µM [cytotoxic, full curve, poor fit] |  | inconclusive: 0.731 µM [cytotoxic, full curve] | inactive: -2.81% |
| CCCC(=O)OCOC(=O)C1=C(C)NC(C)=C(C(=O)OC)C1c1cccc(Cl)c1Cl (stereo not given) | inactive | inconclusive: 13.3 µM [cytotoxic, partial curve, poor fit] |  | inconclusive: 23.1 µM [cytotoxic, single point] | inactive: 6.2% |
| FC(F)(F)c1ccc(/C=C/c2nc(COc3ccc(CCCCn4ccnn4)cc3)co2)cc1 | inconclusive: 14.6 nM [cytotoxic, full curve] and inconclusive: 41.7 nM [cytotoxic, full curve] | inconclusive: 0.0116 µM [cytotoxic, full curve] | inconclusive: 0.1 µM [cytotoxic, full curve] | inconclusive: 0.316 µM [cytotoxic, full curve, poor fit] |  |
| COc1cccc2c1C(=O)c1c(O)c3c(c(O)c1C2=O)C[C@@](O)(C(=O)CO)C[C@@H]3O[C@H]1C[C@H](N)[C@H](O)[C@H](C)O1 | inconclusive: 0.0186 µM [cytotoxic, full curve] | inconclusive: 0.0209 µM [cytotoxic, full curve] | active: 2.31 µM and active: 891 nM | active: 23.1 µM and active: 7.08 µM |  |
| NC(=O)C(c1ccccc1)(c1ccccc1)[C@@H]1CCN(CCc2ccc3c(c2)CCO3)C1 | inconclusive: 23.7 µM [cytotoxic, single point] | inconclusive: 23.7 µM [cytotoxic, single point] | inconclusive: 18.4 µM [cytotoxic, single point] | inconclusive: 29.1 µM [cytotoxic, single point] |  |
| CCCN(CCC)C(=O)C(CCC(=O)OCCCN1CCN(CCOC(=O)Cc2c(C)n(C(=O)c3ccc(Cl)cc3)c3ccc(OC)cc23)CC1)NC(=O)c1ccccc1 (stereo not given) | active: 23.1 µM | active: 20.6 µM | inconclusive: 20.6 µM [cytotoxic, single point] | inconclusive: 29.1 µM [cytotoxic, single point] |  |
| C#CCN(C)CCCOc1ccc(Cl)cc1Cl | inconclusive: 16.8 µM [cytotoxic, partial curve, poor fit] | inconclusive: 33.5 µM [cytotoxic, partial curve, poor fit] |  | active: 18.4 µM | inactive: -17.3% |
| Cc1nc(C2CCCCC2)c(-c2ccc(S(N)(=O)=O)c(F)c2)o1 | inconclusive: 13.3 µM [cytotoxic, partial curve] | inconclusive: 15 µM [cytotoxic, partial curve] |  | inconclusive: 6.51 µM [rising, single point] | inactive: 16% |
| Cc1ccc(Nc2c(F)cccc2Cl)c(CC(=O)O)c1 | inconclusive: 16.8 µM [cytotoxic, single point] and inconclusive: 29.1 µM [cytotoxic, single point] | inconclusive: 21.1 µM [cytotoxic, single point] and inconclusive: 29.1 µM [cytotoxic, single point] | inconclusive: 20.6 µM [cytotoxic, single point] | inconclusive: 29.1 µM [cytotoxic, single point] |  |
| CCC(CC)(CC(=O)Nc1cccc(/C=C/c2nc(C3CCC3)cs2)c1)C(=O)O | inconclusive: 15 µM [cytotoxic, partial curve] | inconclusive: 21.1 µM [cytotoxic, partial curve] | inconclusive: 20.6 µM [cytotoxic, single point] | inconclusive: 29.1 µM [cytotoxic, single point] |  |
| Cc1ccc(C(=O)Nc2ccc(CN3CCN(C)CC3)c(C(F)(F)F)c2)cc1C#Cc1cnc2[nH]ncc2c1 | inconclusive: 0.0017 µM [cytotoxic, full curve, poor fit] | inconclusive: 0.0026 µM [cytotoxic, full curve] | active: 1.78 µM | active: 5.01 µM |  |
| COc1ccc([C@@H](O)[C@@H](C)Oc2ccc([C@H]3O[C@H](c4ccc(O[C@H](C)[C@H](O)c5ccc(OC)c(OC)c5)c(OC)c4)[C@H](C)[C@H]3C)cc2OC)cc1OC | inconclusive: 0.0661 µM [cytotoxic, full curve] | inconclusive: 0.0372 µM [cytotoxic, full curve] | active: 0.316 µM | active: 1.78 µM |  |
| COc1cc(OCc2cccc(-c3ccccc3)c2C)cc(OC)c1CN1CCCC[C@H]1C(=O)O | inconclusive: 13.2 µM [cytotoxic, partial curve, poor fit] | active: 8.33 µM | inconclusive: 35.5 µM [cytotoxic, single point] | inconclusive: 31.6 µM [cytotoxic, partial curve, poor fit] |  |
| CC1(C)O[C@@H]2C[C@H]3[C@@H]4CCC5=CC(=O)CC[C@]5(C)[C@@]4(F)[C@@H](O)C[C@]3(C)[C@]2(C(=O)CCl)O1 | inconclusive: 29.9 µM [cytotoxic, single point] | active: 18.8 µM |  | inactive | inactive: 9.64% |
| C=C1C[C@H]2[C@@H]3C=C(C)C4=CC(=O)CC[C@]4(C)[C@H]3CC[C@]2(C)[C@@]1(OC(C)=O)C(C)=O | active: 18.8 µM | inconclusive: 18.8 µM [cytotoxic, partial curve] | inconclusive: 23.1 µM [cytotoxic, partial curve, poor fit] | inactive |  |
| CCc1c(C)[nH]c2c1C(=O)C(CN1CCOCC1)CC2 (stereo not given) | inconclusive: 21.1 µM [cytotoxic, partial curve, poor fit] | inconclusive: 11.9 µM [cytotoxic, partial curve] |  | inconclusive: 32.6 µM [cytotoxic, single point] | inactive: 7.75% |
| CS(=O)(=O)c1ccc(-c2cnc(NCc3ccco3)n3cnnc23)cc1 | inconclusive: 13.2 µM [cytotoxic, partial curve] | inconclusive: 13.2 µM [cytotoxic, partial curve] |  | inactive | inactive: -12% |
| CC(C)c1onc(-c2c(Cl)cccc2Cl)c1COc1ccc(/C=C/c2cccc(C(=O)O)c2)c(Cl)c1 | inconclusive: 20.9 µM [cytotoxic, partial curve] | active: 14.8 µM | inconclusive: 31.6 µM [cytotoxic, single point] | inconclusive: 35.5 µM [cytotoxic, single point] |  |
| Cc1ccc(N)cc1O | inconclusive: 27.3 µM [cytotoxic, partial curve] | active: 9.69 µM |  | inconclusive: 7.94 µM [cytotoxic, partial curve] | inactive: 2.63% |
| O=C(COCCOCCOCC(=O)Nc1c(I)cc(I)c(C(=O)O)c1I)Nc1c(I)cc(I)c(C(=O)O)c1I | inconclusive: 0.0009 µM | inconclusive: 0.0009 µM | inconclusive: 18.4 µM [cytotoxic, partial curve, poor fit] | inconclusive: 9.2 µM [cytotoxic, partial curve] |  |
